Experimental data reported in PubChem BioAssay (NCI).
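1) Cells in 96-well plates. 2) Compound, 48 h, 5 concentrations. 3) Linear interpolation between surrounding doses. 4) Unreached endpoint = highest concentration. TGI denotes the concentration required for complete inhibition of growth.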 Some entries of the source have several records that differ or are many. This is not the full list of results. There may be further records. The tests behind the records often covered other concentration ranges, which the source does not state; a value can be the end of its range.

Tested on: MDA-MB-468 breast
Experiment: NCI anticancer screen, dose series, 48 h

SMILES	TGI
CC(=O)N[C@H]1C=C[C@@H]2/C=C(C)/C=C/[C@@H](C)[C@H]([C@H](C)[C@H](O)[C@@H](C)NC(C)=O)OC(=O)/C=C/C=C(C)\C=C\[C@]2(C)C1	13.7 nM and 1.44 µM
COc1cc(C(=O)/C(C)=C/c2c[nH]c3ccccc23)cc(OC)c1OC	84 nM and > 100 µM
